Assay results taken from the supplement of paper PMC4723716.
± gives the uncertainty stated by the source. Whole data set: some 9,900 compounds, median “viability index relative to DMSO control” near 1, cut for the lowest 2% near 0.85. Some of the results follow.

Tested on: Plasmodium falciparum NF54 stage V gametocytes
Assay: viability index relative to DMSO control (fraction); higher = less gametocyte killing
Details: 2.5 µM, incubation time: 72 h
How it was run: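 In 1,536-well plates, 10 µl of serum-free medium holding P. falciparum NF54 stage V gametocytes (0.75% gametocytemia, 1.25% hematocrit) received compound at 2.5 µM for 72 hr at 37°C in low oxygen. After one to two hours with 3 µl of 2.5 µM MitoTracker Red CMXRos containing 0.13% saponin, red particles of 20–70 µm2 were counted in a single field per well. Viability index is reported as the particle count over the plate mean of wells treated with solvent only.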

[1] = library set: Broad Institute DOS

`COCC(=O)Nc1ccc2c(c1)C(=O)N(C)[C@H]1CC[C@H](CC(=O)NC3Cc4ccccc4C3)O[C@H]1CO2` was tested, and the viability index [1] was 1.16 ± 0.086.
With `CCS(=O)(=O)N1[C@H](C#N)[C@H](c2ccc(C#CCC3CCCC3)cc2)[C@@H]1CO` the viability index [1] was 1.05 ± 0.041.
Molecule `CO[C@@H]1CN(C)C(=O)c2cc(NC(=O)c3ccc4c(c3)OCO4)ccc2OC[C@H](C)N(CCC(F)(F)F)C[C@H]1C` has a viability index [1] of 1.07 ± 0.017.
Work on `C[C@@H]1CCCCO[C@@H](CN(C)C(=O)c2ccncc2)[C@@H](C)CN([C@H](C)CO)C(=O)c2cc(NS(=O)(=O)c3cccs3)ccc2O1` yielded a viability index [1] of 1.15 ± 0.064.
`CO[C@H](CN(C)CC1CCOCC1)[C@@H](C)CN(C(=O)Nc1ccc(F)cc1)[C@@H](C)CO` gave a viability index [1] of 1.087 ± 0.0089.
Work on `C[C@H](CO)N1C[C@H](C)[C@@H](CN(C)C(=O)c2ccncc2)OCCCC[C@H](C)Oc2ccc(NS(=O)(=O)c3cccs3)cc2C1=O` yielded a viability index [1] of 1.07 ± 0.078.
Molecule `O=C(C[C@@H]1CC[C@@H](NS(=O)(=O)c2ccc(F)cc2)[C@@H](CO)O1)N1CCN(c2ccccc2)CC1` has a viability index [1] of 1.08 ± 0.042.
With `COCC(=O)N1C[C@@H]2[C@H](c3ccccc31)[C@H](CO)N2C(=O)c1ccccc1F` the viability index [1] was 0.98 ± 0.013.
`CCCNC(=O)N1[C@@H](CO)[C@H](c2ccccc2)C12CN(C(=O)C1CCCCC1)C2` was tested, and the viability index [1] was 1.02 ± 0.091.
In the case of `Cc1noc(C)c1NC(=O)Nc1ccc2c(c1)CC(=O)N([C@H](C)CO)C[C@@H](C)[C@H](CN(C)Cc1ccc(C(F)(F)F)cc1)O2`, the viability index [1] is reported as 1.04 ± 0.076.
With `CCCC(=O)Nc1ccc2c(c1)C(=O)N(C)C[C@H](OC)[C@H](C)CN(C(=O)c1ccccn1)[C@@H](C)CO2` the viability index [1] was 1.07 ± 0.045.
`CCCC#Cc1ccc([C@H]2[C@@H](CO)N[C@@H]2CN(C(C)=O)C2CCCC2)cc1` gave a viability index [1] of 0.91 ± 0.063.
`Cc1noc(C)c1NC(=O)N(C)C[C@H]1Oc2ccc(NC(=O)Cc3cn(C)c4ccccc34)cc2CC(=O)N([C@@H](C)CO)C[C@@H]1C` showed a viability index [1] of 0.991 ± 0.059.
`CCCNC(=O)Nc1ccc2c(c1)OC[C@@H](C)N(S(C)(=O)=O)C[C@@H](C)[C@H](OC)CN(C)C2=O` gave a viability index [1] of 1.01 ± 0.026.
Work on `COc1ccc2c3c([C@@H](CO)NC[C@]33CN(C3)C(=O)Nc3ccccc3F)n(C)c2c1` yielded a viability index [1] of 1.035 ± 0.0084.
`COc1ccccc1S(=O)(=O)N[C@@H]1C=C[C@@H](CC(=O)N2CCOCC2)O[C@H]1CO` gave a viability index [1] of 1.13 ± 0.041.
For `Cc1ccc(S(=O)(=O)N(C)C[C@@H]2OCc3ccccc3-c3c(n(C)c4ccccc34)C(=O)N([C@@H](C)CO)C[C@@H]2C)cc1`, the viability index (library set: Broad Institute Blood Stage) was 0.728 ± 0.062.
With `C[C@@H]1CN([C@H](C)CO)C(=O)c2cc(NC(=O)C3CC3)ccc2O[C@@H]1CN(C)S(=O)(=O)c1ccccc1` the viability index [1] was 0.877 ± 0.27.
`COc1ccc(S(=O)(=O)Nc2ccc3c(c2)CC(=O)N([C@@H](C)CO)C[C@H](C)[C@H](CN(C)Cc2ccc(C(=O)Nc4ccccc4N)cc2)O3)cc1` gave a viability index [1] of 0.993 ± 0.024.
In the case of `COc1ccc(S(=O)(=O)N2C[C@@H](O)COC[C@@H]3O[C@@H](CC(=O)N[C@H]4CCN(Cc5ccccc5)C4)CC[C@H]32)cc1`, the viability index [1] is reported as 0.8771 ± 0.005.
Molecule `CC(=O)N1[C@H](CO)[C@H](c2ccc(-c3ccccc3F)cc2)[C@@H]1CNC(C)C` has a viability index [1] of 1.04 ± 0.032.
`C[C@H](CO)N1C[C@H](C)[C@H](CN(C)S(=O)(=O)c2ccccc2)OCCCC[C@H](C)Oc2ccc(NC(=O)Nc3ccc4c(c3)OCO4)cc2C1=O` gave a viability index [1] of 1.018 ± 0.0033.
`N#Cc1cccc(-c2ccc3c(c2)[C@H]2[C@H](CCN2C(=O)c2ccccc2F)[C@@H](CO)N3)c1` showed a viability index [1] of 1.01 ± 0.063.
With `COc1ccc2c3c([nH]c2c1)[C@H](CO)N(Cc1ccccc1F)C[C@]31CN(CC2CC2)C1` the viability index [1] was 0.985 ± 0.05.
`C[C@H]1CN([C@@H](C)CO)C(=O)c2cccc(NC(=O)c3ccncc3)c2O[C@H]1CN(C)Cc1ccc2c(c1)OCO2` showed a viability index [1] of 1.02 ± 0.062.
In the case of `C/C=C/c1ccc([C@@H]2[C@@H](CO)N3C(=O)CN(S(=O)(=O)c4ccccc4)C[C@@H]23)cc1`, the viability index [1] is reported as 0.777 ± 0.16.
Work on `C[C@H]1CN([C@@H](C)CO)C(=O)c2ccccc2-c2ccccc2CO[C@H]1CN(C)C(=O)Nc1ccc(-c2ccccc2)cc1` yielded a viability index [1] of 0.724 ± 0.14.
In the case of `COc1ccc(C#Cc2ccc([C@H]3[C@@H](CO)N4C(=O)CN(C(=O)NC(C)C)C[C@@H]34)cc2)cc1`, the viability index [1] is reported as 0.986 ± 0.014.
In the case of `O=C(C[C@H]1C=C[C@@H](NC(=O)Cc2ccccn2)[C@H](CO)O1)NCCc1ccncc1`, the viability index [1] is reported as 0.9 ± 0.049.
With `COc1ccc(CNC(=O)N(C)C[C@@H]2OCc3ccccc3-c3c(n(C)c4ccccc34)C(=O)N([C@H](C)CO)C[C@@H]2C)cc1` the viability index [1] was 0.965 ± 0.047.
With `C[C@H]1CN([C@@H](C)CO)C(=O)c2ccccc2-c2ccccc2CO[C@@H]1CN(C)C(=O)Nc1ccnc(N2CCOCC2)c1` the viability index [1] was 1.02 ± 0.2.
`Cc1ccc(S(=O)(=O)N2C[C@@H]3N[C@H](C2)[C@@H]3c2ccc(-c3ccc(C(=O)N(C)C)cc3)cc2)cc1` showed a viability index [1] of 1.08 ± 0.018.
`C/C=C/c1ccc([C@H]2[C@@H](CNC(C)C)N(C(=O)c3ccccn3)[C@H]2CO)cc1` showed a viability index [1] of 0.972 ± 0.042.
`COc1ccc2c3c([C@H](CO)N(CC4CCOCC4)C[C@]33CN(Cc4nccs4)C3)n(C)c2c1` showed a viability index [1] of 1.08 ± 0.019.
Molecule `CO[C@@H]1CN(C)C(=O)c2ccc(NC(=O)c3cccc(F)c3)cc2OC[C@@H](C)NC[C@@H]1C` has a viability index [1] of 1.04 ± 0.032.
In the case of `O=C(C[C@H]1C[C@H]2c3cc(NC(=O)c4cccnc4)ccc3O[C@H]2[C@@H](CO)O1)NCc1cc(F)ccc1F`, the viability index [1] is reported as 0.986 ± 0.07.
In the case of `CCN(C[C@H]1[C@H](c2ccc(-c3cccnc3)cc2)[C@@H](CO)N1C(C)=O)C(C)=O`, the viability index [1] is reported as 1.049 ± 0.0067.
In the case of `COc1ccc(C#Cc2ccc([C@@H]3[C@@H](CO)N4C(=O)CN(C(=O)c5ccc(F)cc5)C[C@@H]34)cc2)cc1`, the viability index [1] is reported as 1.06 ± 0.053.
`COc1ccc(NC(=O)N(C)C[C@H]2OCCCC[C@H](C)Oc3ccc(NC(=O)c4ccncc4)cc3C(=O)N([C@H](C)CO)C[C@@H]2C)cc1` showed a viability index [1] of 1.09 ± 0.013.
In the case of `C[C@@H]1CN([C@@H](C)CO)C(=O)Cc2cc(NS(=O)(=O)c3ccc(Cl)cc3)ccc2O[C@@H]1CN(C)C(=O)Nc1ccc(C(F)(F)F)cc1`, the viability index [1] is reported as 1.011 ± 0.01.
Work on `COc1ccc(C#Cc2ccc([C@H]3[C@@H](CO)N4C(=O)CN(C(=O)c5ccc(F)cc5)C[C@H]34)cc2)cc1` yielded a viability index [1] of 0.996 ± 0.093.
`O=C(C[C@H]1CC[C@H]2[C@@H](COC[C@H](O)CN2C(=O)Nc2ccccc2)O1)NCc1ccccc1F` gave a viability index [1] of 1.09 ± 0.024.
In the case of `O=C(NCC[C@@H]1CC[C@@H](NS(=O)(=O)Cc2ccccc2)[C@@H](CO)O1)C1CCCCC1`, the viability index [1] is reported as 0.968 ± 0.15.
